# Patent US20230295316A1 (FRED HUTCHINSON CANCER CENTER, published 2023)
# T1: Hs_CD123_6His-Avi (CD123 ECD-His-Avi fusion protein) (human, UniProt P26951 19-303)
# T1 construct: The signal peptide is marked only by bold type, so its limits cannot be read here and were not guessed; also called His-Avi tagged peptide encompassing the ECD of human CD123
# T1 sequence: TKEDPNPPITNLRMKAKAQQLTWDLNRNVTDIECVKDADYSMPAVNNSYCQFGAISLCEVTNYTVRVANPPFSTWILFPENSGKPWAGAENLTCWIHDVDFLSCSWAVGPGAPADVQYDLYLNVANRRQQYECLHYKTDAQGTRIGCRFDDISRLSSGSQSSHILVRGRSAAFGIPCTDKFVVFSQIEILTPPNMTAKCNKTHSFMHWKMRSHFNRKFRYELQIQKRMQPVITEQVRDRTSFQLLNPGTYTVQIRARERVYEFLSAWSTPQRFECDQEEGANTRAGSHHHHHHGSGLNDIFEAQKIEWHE
# Target: T1, Hs_CD123_6His-Avi (CD123 ECD-His-Avi …)
# Assay: SPR (Biacore T-100), univalent affinity; antibody captured on the CM4 chip, human CD123 ECD as analyte
# Procedure: FIGS. 21A-21B. Surface plasmon resonance (Biacore T-100) analyses were performed to rigorously/precisely determine univalent binding affinities of recombinant, fully human versions of the anti-human CD123 monoclonal antibodies 1B5, 1D9, and 1E3, using human IgG1 (FIG. 21A) and human IgG4 frameworks (FIG. 21B). For these experiments, a peptide encoding the complete extracellular portion of human CD123 was used, and the antibodies were captured on the biosensor chip (CM4) via a Fc gamma-specific goat anti-human IgG and amine coupling.
Kd [nM],koff [s⁻¹],kon [M⁻¹ s⁻¹],Binder
4.92,0.00316,643000,"123-ATX1B5, fully human recombinant antibody, human IgG1 framework (antibody, also called 1B5 (human IgG1)) heavy: EVQLVESGGGLVQPGGSLRLSCATSGFTFSNYDMHWVRQVTGKGLEWVSGIGIAGDTYYPGSVKGRFTISREDAKNSLYLQMNSLRAEDTAVYYCATERGSSSWYNYFDYWGQGTLVTVSS[human IgG1 constant region not printed] light: [about 100 residues not printed][about 120 residues not printed]"
4.71,0.00301,639000,"123-ATX1B5, fully human recombinant antibody, human IgG4 framework (antibody, also called 1B5 (human IgG4)) heavy: EVQLVESGGGLVQPGGSLRLSCATSGFTFSNYDMHWVRQVTGKGLEWVSGIGIAGDTYYPGSVKGRFTISREDAKNSLYLQMNSLRAEDTAVYYCATERGSSSWYNYFDYWGQGTLVTVSSASTKGPSVFPLAPCSRSTSESTAALGCLVKDYFPEPVTVSWNSGALTSGVHTFPAVLQSSGLYSLSSVVTVPSSSLGTKTYTCNVDHKPSNTKVDKRV[human IgG4 Fc with S228P (EU numbers) not printed] light: [about 100 residues not printed][about 120 residues not printed]"
